Measured values as given in PubChem BioAssay AID894 (National Center for Advancing Translational Sciences (NCATS), 2007).
Several values for one entry are separate records, joined by “and”; a condition that tells them apart may be missing. Identical values can stand only once. Hit rate of the full screen: of about 150,000 compounds, about 6,500 (4.3%) were called active. The shares of active, inactive and inconclusive entries below differ from those in the screen. Calls come from the whole dose curve; as a rule, active = well fitted inhibition curve with a large enough effect (not every such curve was filed as active); inconclusive = small, poorly fitted or top-dose-only effect, or another doubt; inactive = no such curve, though single readings can be large or run the other way. No potency is given beside an inconclusive call; the fits are too rough.

Target: 15-hydroxyprostaglandin dehydrogenase [NAD(+)] (Homo sapiens) (UniProt P15428)
Assay: qHTS Assay for Inhibitors of HPGD (15-Hydroxyprostaglandin Dehydrogenase)
Details: purified HPGD, NADH fluorescence kinetic, PGE2 substrate; activity change, negative = inhibition: stronger effect = lower value
In short: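 NADH formation kinetics: reaction with 30 uM PGE2 and 1 mM NAD+ (final), 20 nM enzyme, Tris-HCl pH 8 with Tween 20, after 15 min compound preincubation at room temperature. Fluorescence change, last versus first of five reads.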
% is set by controls: 0 for no effect and ±100 for the full control effect; potency is the fitted concentration of half-maximal effect; tags give direction and shape of the fitted curve.

Sequence of UniProt P15428 (P15428 whole entry, looked up): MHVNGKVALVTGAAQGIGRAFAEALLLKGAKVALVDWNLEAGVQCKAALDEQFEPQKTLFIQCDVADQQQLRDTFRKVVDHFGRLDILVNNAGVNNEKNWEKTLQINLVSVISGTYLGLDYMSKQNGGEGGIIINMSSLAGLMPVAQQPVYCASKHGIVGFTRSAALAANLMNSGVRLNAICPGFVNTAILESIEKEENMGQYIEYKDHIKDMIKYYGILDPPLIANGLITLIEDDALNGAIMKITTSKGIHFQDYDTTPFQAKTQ

Row | SMILES | Potency | activity change, negative = inhibition
1 | Clc1cccc(N/N=C/c2ccc(N3CCOCC3)cc2)c1 | inconclusive [inhibitor, single point] | –
2 | O=C(Nc1ccc(Cl)cc1)N1CCSc2ccccc21 | inconclusive [inhibitor, partial curve] | –
3 | CC1CCN(Cc2ccc(NC(=O)CC3Oc4ccccc4NC3=O)cc2)CC1 (centres undefined) | – | inactive: -16.1%
4 | COC(=O)c1sc(=S)n(-c2ccc(Cl)cc2)c1C | inconclusive [inhibitor, partial curve, poor fit] | –
5 | CCCc1cc(C(=O)Cc2nc3ccccc3s2)c(O)cc1O | inconclusive [inhibitor, partial curve] | –
6 | CCCCNC(=O)c1ccccc1Cl | active: 8.91 µM | –
7 | CCc1ccc(S(=O)(=O)NCCc2csc(-c3cccnc3)n2)s1 | inconclusive [inhibitor, partial curve] | –
8 | CC(Cc1ccc(O)c(O)c1)C(C)Cc1ccc(O)c(O)c1 (centres undefined) | active: 14.1 µM and active: 12.6 µM | –
9 | CSc1nnc(Cc2sc(-c3ccccc3)nc2-c2ccccc2)o1 | inconclusive [inhibitor, single point] | –
10 | O=C(N/N=C/c1cccnc1)c1cc2c(ccc3ccccc32)o1 | inconclusive [inhibitor, partial curve] | –
11 | c1ccc(C2c3c(ccc4ccccc34)Oc3ncn4nc(-c5ccco5)nc4c32)cc1 (centres undefined) | inconclusive [inhibitor, partial curve] | –
12 | O=C1c2cc3ccccc3c(-c3ccccc3)c2C(=O)N1c1ccccn1 | inconclusive [inhibitor, partial curve] | –
13 | Cc1ccnc(NS(=O)(=O)Cc2ccccc2)c1 | inconclusive [inhibitor, single point] | –
14 | CCC(=O)Nc1c(-c2ccc(OC)cc2)c(=O)c2ccccc2n1C | inconclusive [inhibitor, partial curve] | –
15 | O=C(O)Cc1cc(I)c(Oc2ccc(O)c(I)c2)c(I)c1 | inconclusive [inhibitor, partial curve, poor fit] | –
16 | COc1ccc(-c2cc(-c3ccccc3)c(C#N)c(SCC(=O)Nc3ncc(C)s3)n2)cc1 | inconclusive [inhibitor, partial curve] | –
17 | Cc1cccc2nc(CSc3nc4[nH]ncc4c(=O)n3-c3cccc(Cl)c3)cc(=O)n12 | inconclusive [inhibitor, partial curve] | –
18 | CN(C)S(=O)(=O)c1cccc(-c2cn3cc(Cl)ccc3n2)c1 | inconclusive [inhibitor, partial curve, poor fit] | –
19 | CCCCCCNc1nc(-c2ccc(OC)cc2)c(CCC(=O)O)s1 | inconclusive [inhibitor, partial curve] | –
20 | O=C1c2ccccc2C2=Nc3ccccc3SC(c3ccccc3F)C12 (centres undefined) | inconclusive [inhibitor, full curve, poor fit] | –
21 | COC(=O)c1cc(OC)c(OC)cc1NC(=O)Nc1ccccc1OC | inconclusive [inhibitor, partial curve] | –
22 | COc1ccc(CNC(=O)[C@H]2C[C@@H]2[C@H](NP(=O)(c2ccccc2)c2ccccc2)c2ccccc2)cc1OC | – | inactive: -6.59%

Row | SMILES | Potency | activity change, negative = inhibition
23 | O=S(=O)(c1ccccc1)c1cnn2c(C(F)(F)F)cc(-c3ccc(F)cc3)nc12 | inconclusive [inhibitor, partial curve] | –
24 | S=c1[nH]nc(-c2cccnc2)n1/N=C/c1ccc(Br)s1 | active: 15.8 µM | –
25 | COc1cccc2cc(-c3nnc(SCC(=O)Nc4cc(C(F)(F)F)ccc4Cl)n3N)oc12 | inconclusive [inhibitor, partial curve] | –
26 | Nn1c(SCC(=O)Nc2ccc(F)cc2)nnc1-c1ccccn1 | – | inactive: -11.3%
27 | O=C(C1CCC(CNS(=O)(=O)c2cccc3nsnc23)CC1)N1CC=C(c2ccccc2)CC1 (centres undefined) | active: 15.8 µM | –
28 | CC(Oc1ccc(C(=O)c2ccccc2)cc1)C(=O)Nc1ccc(S(N)(=O)=O)cc1 (centres undefined) | inconclusive [inhibitor, partial curve] | –
29 | CCc1c(C)nc(SCCOc2ccc(OC(C)C)cc2)[nH]c1=O | inconclusive [inhibitor, full curve, poor fit] | –
30 | CCOc1ccc(C2C=C(c3ccc(C)cc3)Nc3nnnn32)cc1 (centres undefined) | inconclusive [inhibitor, single point] | –
31 | Cc1ccc2nc(-c3ccc(NC(=O)CN4CCN(C(=O)c5ccco5)CC4)cc3)sc2c1 | inconclusive [inhibitor, partial curve] | –
32 | Fc1ccc(NC(=S)NC23CN4CN(CN(C4)C2)C3)cc1 | – | inactive: -6.22%
33 | CC1CC(C)CN(C(=O)c2cc3c(s2)CCC3)C1 (centres undefined) | active: 12.6 µM | –
34 | O=C(Nc1cccc(C(F)(F)F)c1)C12CC3CC(CC(C3)C1)C2 | – | inactive: -18.5%
35 | Cn1c(CCNC(=O)OC(C)(C)C)n[nH]c1=S | – | inactive: -7.46%
36 | COc1ccc(-n2nc3ccc(NS(C)(=O)=O)cc3n2)cc1Cl | inconclusive [inhibitor, partial curve] | –
37 | COc1ccc(OC)c2[nH]c(=O)c(CCNC(=O)c3ccc(S(=O)(=O)N4CCCCC4)cc3)cc12 | inconclusive [inhibitor, partial curve] | –
38 | CC(C)C[C@@H](CC(=O)N[C@@H](CCC(=O)O)CC(=O)O)NC(=O)[C@@H]1CCCC[C@H]1NC(=O)C[C@H](CCCN)NC(=O)C[C@H](CO)NC(=O)[C@@H]1CCCC[C@H]1N | – | inactive: -2.19%
39 | COc1ccc(Oc2nc3ccccc3n3cccc23)cc1 | inconclusive [inhibitor, partial curve] | –
40 | CC[C@@H](c1ccc2cc(O)ccc2c1)C(C)(C)C(=O)O | – | inactive: -6.28%
41 | COC(=O)c1ccc(-c2ccc(C(=O)N3CCCN(C)CC3)cc2)cc1 | active: 1.26 µM | –
42 | O=S(=O)(Nc1nc2ccccc2nc1N1CCN(c2ccccn2)CC1)c1ccc(Cl)cc1 | – | inactive: -7.57%
43 | COc1cc(/C=C/C(=O)c2c(O)cc(C)oc2=O)ccc1O | – | inactive: -29.7%
44 | CCc1ccc(C(C)NC(=O)C2(C)CC2(Br)Br)cc1 (centres undefined) | inconclusive [inhibitor, single point] | –

Row | SMILES | Potency | activity change, negative = inhibition
45 | Cc1cccc2c1-c1sc(C(=O)N3CCc4ccccc4C3)cc1CO2 | inconclusive [inhibitor, partial curve] | –
46 | O=C(Cn1cc2c(n1)CCCC2)NC1CCCCCC1 | inconclusive [inhibitor, partial curve] | –
47 | COc1cc(OC)cc(-c2nc(N)n[nH]2)c1 | inconclusive [inhibitor, partial curve] | –
48 | Cc1ccc(-n2nc(C)c3c(C)c(CCC(=O)NCc4ccco4)c(C)nc32)cc1 | inconclusive [inhibitor, partial curve] | –
49 | C=C(C)CSc1nnc(-c2cccc(S(=O)(=O)N(C)C)c2)n1-c1cc(OC)ccc1OC | inconclusive [inhibitor, partial curve, poor fit] | –
50 | CC1CN(S(=O)(=O)c2ccc(C(=O)Nc3sccc3C(N)=O)cc2)CC(C)O1 (centres undefined) | inconclusive [inhibitor, single point] | –
51 | Cc1c(C(=O)Nc2ccccc2Cl)oc2ccc(S(=O)(=O)N3CCC4(CC3)OCCO4)cc12 | inconclusive [inhibitor, partial curve] | –
52 | COc1cc(-c2nc(-c3cccc(C(F)(F)F)c3)no2)cc(OC)c1OC | inconclusive [inhibitor, partial curve] | –
53 | COc1ccccc1-n1cnc2c(c1=O)c1nc3ccccc3nc1n2-c1ccc(C)cc1 | inconclusive [inhibitor, partial curve] | –
54 | COc1ccc(O)c(-c2cc(-c3ccccc3[N+](=O)[O-])[nH]n2)c1 | active: 22.4 µM | –
55 | Fc1ccc(/C=C/c2nnc(-c3cccs3)o2)cc1 | inconclusive [inhibitor, full curve, poor fit] | –
56 | COc1cc(OC)cc(C(=O)N[C@H](C(=O)OCc2cc(=O)oc3cc(C)ccc23)C(C)C)c1 | inconclusive [inhibitor, partial curve] | –
57 | Cc1cccc(C)c1NC(=O)COC(=O)COc1ccc2c(C)cc(=O)oc2c1 | inconclusive [inhibitor, partial curve] | –
58 | Cc1cccc(C2=NN(c3ccccc3)[C@H](CO)[C@H]2c2ccccc2)c1 | inconclusive [inhibitor, partial curve] | –
59 | COc1ccc2cc(C#N)c(NC(C)C)nc2c1 | inconclusive [inhibitor, partial curve] | –
60 | O=C(CSc1nc2ccccc2c2nc3ccccc3n12)NCc1ccco1 | inconclusive [inhibitor, partial curve] | –
61 | COc1ccc2cc(CN(Cc3cccnc3)Cc3nnnn3Cc3ccccc3)c(=O)[nH]c2c1 | – | inactive: -3.25%
62 | O=C1C2C3C=CC(C3)C2C(=O)N1c1ccc(-c2nc3ccccc3o2)cc1 (centres undefined) | inconclusive [inhibitor, partial curve] | –
63 | CCOC(=O)c1c(C)[nH]c(/C(C)=N/O)c1C | inconclusive [inhibitor, partial curve] | –
64 | CCOc1ncccc1C(=O)NCc1ccc(OC)cc1 | inconclusive [inhibitor, partial curve] | –
